Laboratory results published in publication PMC6919601, “Identification of Plasmodium dipeptidyl aminopeptidase allosteric inhibitors by high throughput screening” (PLoS ONE, 2019).
Where “and” joins values, the source holds several entries; their conditions need not be identical. Identical values can stand only once. The whole screen tested about 110,000 compounds, of which about 230 (0.21%) showed an effect of 50% or more. Some of the results follow.

Each compound was assayed against DPAP1 (Plasmodium falciparum, UniProt Q8IIJ9) (assay: primary screen, percent inhibition; read by cleavage of a fluorogenic dipeptide substrate; higher = more effect of the substance).
Sequence of DPAP1 (Q8IIJ9 whole entry, looked up): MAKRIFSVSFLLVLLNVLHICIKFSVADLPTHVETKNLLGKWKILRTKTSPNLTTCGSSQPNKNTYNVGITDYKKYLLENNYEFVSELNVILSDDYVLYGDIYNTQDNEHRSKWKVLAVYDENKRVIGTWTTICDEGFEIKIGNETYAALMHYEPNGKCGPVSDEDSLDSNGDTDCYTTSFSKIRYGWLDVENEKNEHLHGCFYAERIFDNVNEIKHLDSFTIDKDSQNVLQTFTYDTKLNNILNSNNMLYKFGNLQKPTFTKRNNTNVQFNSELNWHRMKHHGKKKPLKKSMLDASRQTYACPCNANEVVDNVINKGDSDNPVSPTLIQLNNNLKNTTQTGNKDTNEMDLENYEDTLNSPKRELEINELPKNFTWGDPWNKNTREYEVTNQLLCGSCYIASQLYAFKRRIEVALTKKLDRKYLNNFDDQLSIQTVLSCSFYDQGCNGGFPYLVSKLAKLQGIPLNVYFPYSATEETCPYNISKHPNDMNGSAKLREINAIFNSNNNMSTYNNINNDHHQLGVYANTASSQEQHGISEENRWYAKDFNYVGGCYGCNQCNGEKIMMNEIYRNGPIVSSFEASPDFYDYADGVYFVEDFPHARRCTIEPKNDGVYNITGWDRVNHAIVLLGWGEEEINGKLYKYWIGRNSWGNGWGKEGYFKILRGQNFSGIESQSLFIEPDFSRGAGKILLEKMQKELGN
Set-up: species or system P. falciparum D10 trophozoite lysates; single well
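Also: 30 min substrate incubation versus DMSO and 10 µM JCP410 controls.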

Compound	% Inhibition @ 10 uM
O=C(NCc1cccs1)C1CCC(CNS(=O)(=O)c2cccc3nsnc23)CC1 (stereo not drawn)	-0.465%
CCCCc1ccc(-c2nc(/C=N/c3cccnc3)c(O)o2)cc1	1.95%
Cc1ccccc1C(=O)O/N=C(\c1ccccc1)c1ccccn1	1.13%
COc1ccc2c(c1)CC/C(=C\c1ccc(F)cc1)C2=O	5.7%
N#CCNC(=O)[C@H](CCCc1ccccc1)NC(=O)c1ccccc1	-1.83%
Cc1cc2c(cc3c(=O)n(CC(=O)NC4CCC(C)CC4)ncn32)s1 (stereo not drawn)	-1.7%
O=C(COc1ccc(Cl)cc1Cl)Nc1ccc(S(=O)(=O)Nc2nccs2)cc1	11.5%
CN(C)c1ccc(-n2nc3ccc(NC(=O)c4ccco4)cc3n2)cc1	-0.171%
COc1ccccc1-n1c(S)nnc1-c1nn(C)c(C)c1Cl	3.94%
CC(=O)Nc1nc2c(s1)CC(c1ccccc1)CC2 (stereo not drawn)	2.84%
CCN(CC)c1ccc(Nc2nc(-c3sc(N)nc3C)cs2)cc1	9.57%
CCS(=O)(=O)c1oc(-c2ccc(F)cc2)nc1S(=O)(=O)c1ccc(Cl)cc1	3.54%
C=CCNC(=O)Nc1cnc2ccc(C)cc2c1O	5.43%
COc1nc(-c2ccccc2)cc(-c2ccc(C)cc2)n1	1.8%
O=C(Nc1ccc(F)cc1Cl)c1cc2ccccc2o1	-0.865%
Cc1nc2c(-c3ccc(Cl)cc3)c(C)nn2c(O)c1Cl	3.61%
Cc1[nH]nc2c1C(c1ccc(COc3cccc(Br)c3)o1)C(C#N)=C(N)O2 (stereo not drawn)	-0.105%
CC1Oc2ccccc2OC1C(=O)NCc1ccccc1 (stereo not drawn)	-3.4%
COc1ccc(OC)c(C2=NOC(C(=O)N3CCC4(CC3)OCCO4)C2)c1 (stereo not drawn)	2.85%
OC1CCN(Cc2ccc(F)cc2F)CC1	-0.828%
CCN(CC)S(=O)(=O)c1cccc(C(=O)Nc2ccc(OC)cc2)c1	3.25%
COc1ccc(CNc2nc(-c3cccnc3)nn2S(=O)(=O)c2ccccc2)cc1	3.81%

Compound	% Inhibition @ 10 uM
COc1ccccc1C(=O)n1nc(-c2cccnc2)nc1NCc1ccco1	-4.75%
CCc1ccc2cc(-c3ccc(F)cc3)cn2c1	-0.105%
COc1ccc(CCNC(=O)CSc2ncnc3sc(C)c(C)c23)cc1	-2.09%
CCOc1ccccc1C1C2=C(O)CCCC2=Nc2nc(-c3cccc(Cl)c3)nn21 (stereo not drawn)	5.17%
CC(C)Oc1ccc(C(=O)NCCNC(=O)c2nonc2N)cc1	1.72%
O=C(CCn1ccc2cc(S(=O)(=O)N3CCCCC3)ccc21)NCc1ccco1	8.75%
COc1ccc(-c2cn3nc(N4CCC(C(=O)NCCCN5CCN(C)CC5)CC4)sc3n2)cc1	0.434%
Cc1ccc(-c2nnc(N)s2)cc1	2.54%
Cn1nccc1C(=O)N1CCc2ccccc21	1.67%
CC1(C)CC(NC(=O)c2cc(Cl)ccc2Cl)CC(C)(C)N1	-2.67%
COc1ccc(Br)cc1C1C2=C(CC(C)(C)CC2=O)OC2=C1C(=O)CC(C)(C)C2	-1.96%
Oc1c(C(c2ccncc2)N2CCOCC2)cc(Cl)c2cccnc12 (stereo not drawn)	1.91%
CCOc1ccc(S(=O)(=O)NCCc2ccccc2)c2ccccc12	-6.87%
CCc1nnc(NC(=O)c2nc(-c3ccc(Cl)cc3)n3c2CCCCC3)s1	7.82%
Cc1cccc(/N=C/c2nc(-c3ccc(Cl)cc3)oc2O)n1	2.92%
Cc1ccccc1C(=O)NCCCNC(=O)c1ccccc1C	2.08%
O=C(O)c1ccc(Cl)c(N2C(=O)C3C4C=CC(C4)C3C2=O)c1 (stereo not drawn)	5.39%
COCCNc1oc(/C=C/c2cccs2)nc1C#N	4.64%
CCc1ccc(C(=O)/C=C/c2ccccn2)cc1	1.48%
Cc1c(C(=O)N2CCCC2)oc2c1-c1nn(CC(=O)NCCc3ccccc3)cc1CC2	-1.38%
CCCCN(Cc1ccccc1)Cc1ccccc1O	2.99%
COc1ccccc1C(CNC(=O)c1oc2ccc(Cl)cc2c1C)N(C)C (stereo not drawn)	5.54%

Compound	% Inhibition @ 10 uM
CCCc1cc(O)n2nc(-c3ccc(Cl)cc3)nc2n1	-0.671%
Cc1ccc(N)c(C(O)c2ccccc2)c1 (stereo not drawn)	3.42%
CCOc1ccc(NCC(=O)Nc2ccc(Cl)cc2C)cc1	-2.86%
CC(C)CNC(=O)c1cc(-c2ccc(F)cc2)on1	-2.65%
O=C(NC1CCCC1)c1cc(-c2ccc3c(c2)OCO3)nc2ccccc12	0.931%
CC1CCc2c(sc3nnn(C)c(=O)c23)C1 (stereo not drawn)	3.87%
O=[N+]([O-])c1ccccc1S(=O)(=O)N(Cc1ccccc1)Cc1ccccc1	-0.0369%
CCc1cc2c(cc3c(=O)n(CC(=O)NCCC4=CCCCC4)ncn32)s1	1.68%
CC1=C(c2ccc(C)cc2)S(=O)(=O)N=C1NCCCN1C(C)CCCC1C (stereo not drawn)	0.623%
COc1ccc(NC(=O)C2CC(=O)N(C)/C(=N/c3ccc(C)c(Cl)c3)S2)cc1 (stereo not drawn)	-2.83%
COCCCn1c(-c2ccco2)nc2ccccc2c1=O	-14.9%
Cc1ccc(S(=O)(=O)NCC2CCC(C(=O)NCc3cccs3)CC2)cc1 (stereo not drawn)	0.718%
CCOC(=O)c1c(NC(=O)C(C)C)sc2c1CCC2	2.45%
CCCCN1C(=O)C(CC(=O)NCC)S/C1=N/c1ccccc1 (stereo not drawn)	-6.67%
Cc1ccc(-n2nc3c(=O)n(CCCC(=O)NCCC(C)C)nc(C)c3c2C)cc1	-4.77%
N#CC1=C(N)N(c2ccc(Br)cn2)C2=C(C(=O)CCC2)C1c1cccs1 (stereo not drawn)	-4.67%
CC(=O)Nn1c(C)nnc1-n1nc(C)cc1C	1.81%
O=C(Nc1ccc(C(=O)N2CCOCC2)cc1)c1c(Cl)cccc1Cl	-1.96%
COc1ccc(CCc2ncccc2O)cc1	1.29% and 6.61%
O=C1S/C(=C/c2cccc(O)c2)C(=O)N1Cc1ccccc1	0.964%
Cc1c(C(=O)NCc2ccccc2)oc2ccc(S(=O)(=O)N(C)C3CCCCC3)cc12	13.3%
Cc1nn(C(C)C(=O)NC(C)C23CC4CC(CC(C4)C2)C3)c(=O)c2c1sc1ccccc12 (stereo not drawn)	-5.78%
